Screen size: about 310,000 compounds; about 14,000 (4.5%) showed an effect of 50% or more. Effects have a minus sign here. The list shows a part of the results.
biological target: human ether-à-go-go-related gene (hERG) potassium channel (human, UniProt Q12809); assay: primary screen, population patch clamp on CHO cells stably expressing hERG
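Further: peak tail current of the secondary pulse compared with the same well before compound.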

Chain of human ether-à-go-go-related gene (hERG) potassium channel (Q12809 whole entry, looked up): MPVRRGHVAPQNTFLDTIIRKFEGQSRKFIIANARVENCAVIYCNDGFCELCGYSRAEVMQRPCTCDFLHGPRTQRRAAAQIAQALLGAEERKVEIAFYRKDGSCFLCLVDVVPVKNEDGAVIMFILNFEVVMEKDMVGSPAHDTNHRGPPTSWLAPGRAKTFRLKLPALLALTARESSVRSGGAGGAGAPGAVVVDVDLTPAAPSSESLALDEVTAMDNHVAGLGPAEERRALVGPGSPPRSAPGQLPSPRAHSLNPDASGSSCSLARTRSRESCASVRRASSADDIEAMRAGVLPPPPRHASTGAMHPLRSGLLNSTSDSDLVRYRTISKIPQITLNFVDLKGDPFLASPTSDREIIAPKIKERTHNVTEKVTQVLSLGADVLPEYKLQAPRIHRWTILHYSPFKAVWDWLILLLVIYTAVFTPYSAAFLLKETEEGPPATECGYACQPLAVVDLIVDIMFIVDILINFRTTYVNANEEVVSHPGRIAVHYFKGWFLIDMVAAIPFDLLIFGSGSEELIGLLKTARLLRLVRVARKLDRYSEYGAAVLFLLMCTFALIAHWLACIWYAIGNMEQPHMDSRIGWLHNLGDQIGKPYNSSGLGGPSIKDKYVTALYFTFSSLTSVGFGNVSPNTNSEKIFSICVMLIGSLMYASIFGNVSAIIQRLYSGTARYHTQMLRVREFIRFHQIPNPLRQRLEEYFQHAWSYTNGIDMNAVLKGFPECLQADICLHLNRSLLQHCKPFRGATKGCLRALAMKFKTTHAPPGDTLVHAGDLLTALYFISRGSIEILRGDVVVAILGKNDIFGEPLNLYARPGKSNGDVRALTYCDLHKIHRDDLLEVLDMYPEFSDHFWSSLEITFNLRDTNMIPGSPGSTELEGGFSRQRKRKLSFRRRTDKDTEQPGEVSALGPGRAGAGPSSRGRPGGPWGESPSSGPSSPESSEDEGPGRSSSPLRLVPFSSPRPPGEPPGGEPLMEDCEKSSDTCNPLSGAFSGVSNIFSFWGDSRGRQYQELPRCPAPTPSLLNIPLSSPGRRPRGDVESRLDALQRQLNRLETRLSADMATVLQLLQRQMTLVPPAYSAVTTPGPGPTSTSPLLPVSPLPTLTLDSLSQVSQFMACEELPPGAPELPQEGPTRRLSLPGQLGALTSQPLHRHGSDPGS

SMILES	hERG current change (%, negative = inhibition) at 10uM
COc1ccc(C2C(C(=O)c3sc(C)nc3C)=C(O)C(=O)N2CCCn2ccnc2)cc1 (stereo not shown)	18.2%
Cc1cc(-n2c(C)c3c(C)nnc(C)c3c2C)ccc1N	7.6%
CC(=O)Nc1ccc(SCC(=O)c2cc(C)n(Cc3cccs3)c2C)cc1	5.48%
CCc1ccc(NC2CC(=O)N(c3ccc(OC)cc3OC)C2=O)cc1 (stereo not shown)	8.99%
Cc1ccc(CN2CCC(C(=O)Nc3cccc(-c4cccc(F)c4)c3)CC2)o1	-69.1%
CCOc1cc(/C=N/NC(=O)C(OC)c2ccccc2)ccc1O (stereo not shown)	3.89%
NC(=S)N/N=C/C=C/c1ccccc1	1.93%
CCc1cccc(NC(=O)c2ccc(NS(=O)(=O)c3c(C)noc3C)cc2)c1	-15.8%
Cc1c(NS(=O)(=O)c2ccccc2F)c(=O)n(-c2ccccc2)n1C	12.2%
COc1c2c(cc3ccc(=O)oc13)CCO2	12.7%
O=C(CCN1C(=O)/C(=C/c2ccccc2)SC1=S)NC1CCS(=O)(=O)C1 (stereo not shown)	2.46%
Cc1ccc(NC(=O)CCC(=O)OCC(F)(F)C(F)F)cc1	30.5%
CC(C)[C@H](NC(=O)N1CCn2c1nc1ccccc12)C(=O)N[C@@H](Cc1ccccc1)C(=O)O	13.1%
CC(NC(=O)c1ccc(Br)o1)c1ccccc1 (stereo not shown)	1.84%
COc1ccccc1CNc1ccc2nnc(CCNC(=O)c3ccc(C)cc3)n2n1	-0.303%
Cn1c(=O)cc(SCC(=O)NCCCN2CCOCC2)c2ccccc21	-2.51%
O=C(CSCc1ccc(Br)cc1)Nc1ccc(S(=O)(=O)N2CCOCC2)cc1	-27.2%
O=C(O)Cc1nc2nc3c(c(=O)n2[nH]1)CCCC3	16.3%
OC(CN1CCOCC1)CN1CCOCC1	3.54%
Cc1ccc(S(=O)(=O)CCc2nnc(N)s2)cc1	18.2%
O=C(CCSc1nc(-c2ccc3c(c2)OCO3)cc(C(F)(F)F)n1)NCc1ccco1	0.89%
Cc1cc(C)nc(NS(=O)(=O)c2ccc(N/C=C/C(=O)c3ccc(Cl)c(Cl)c3)cc2)n1	25.6%

SMILES	hERG current change (%, negative = inhibition) at 10uM
Cc1cccc(OCCCC(=O)NC(C)c2ccccc2)c1 (stereo not shown)	-4.67%
CC1=C(n2ccnc2)CCC1=O	9.3%
Cc1onc(-c2ccccc2)c1C(=O)N1CCC2(CC1)OCCO2	10.3%
CON1C(=O)C(=O)N(OC)C2CCCCCC21 (stereo not shown)	3.34%
O=C(c1ccc(Cl)c(S(=O)(=O)N2CCCCC2)c1)N1CCN(c2ccccc2)CC1	-26.5%
Cc1cc(NC(=O)c2cc(-c3ccccn3)nc3c(Cl)cccc23)no1	1.48%
Cc1ccc(N(C(=O)C(F)(F)F)C(C(=O)NC2CCCCC2)c2ccncc2)cc1C (stereo not shown)	15.6%
CCCCNC(=O)C1CC(c2cccc(F)c2)=NO1 (stereo not shown)	-0.849%
CCOC(=O)C1CCCc2c1[nH]c1ccc(Cl)cc21 (stereo not shown)	28.9%
O=C(COc1ccc2ccc(=O)oc2c1)Nc1nccs1	-5.65%
CCc1nc(SCc2nnc(-c3ccc(C)cc3)o2)c2c(C)c(C)sc2n1	15.7%
CCOC(=O)C(C(=O)Nc1nccs1)C1CCCCC1 (stereo not shown)	-3.95%
CC(C)c1nc2cc(C(=O)N(C)Cc3ccc(F)cc3)ccc2o1	1.04%
OC(CNCc1ccco1)Cn1c2ccc(Br)cc2c2cc(Br)ccc21 (stereo not shown)	-0.0278%
CC(C)[C@H](NS(=O)(=O)c1ccccc1)C(=O)OCC(=O)N1N=C(c2ccc(Cl)cc2)CC1c1ccco1 (stereo partly shown)	-1.34%
Cc1cc(C(=O)OCC(=O)NCc2cccs2)c2ccccc2n1	-0.0436%
COC(=O)C1=C(c2ccc(S(C)(=O)=O)cc2)C[C@@H]2CC[C@H]1N2C(=O)NCCO	8.14%
COc1cccc(/C=N/n2c(-c3cc(C)[nH]n3)n[nH]c2=S)c1	15.7%
CC(NC(=O)c1cc2c(=O)n(C)c3ccccc3c2n1C)c1ccc2c(c1)OCCO2 (stereo not shown)	14.7%
N#CC1=C(SCc2ccccc2)NC2=C(C(=O)CCC2)C1c1ccc2c(c1)OCO2 (stereo not shown)	-15.3%
O=C(Nc1nccs1)c1csc2c1CCCC2	1.05%
COc1ccc(NC(=O)Cn2nnc(C(=O)Nc3ccc(F)c(Cl)c3)c2N)cc1OC	13.2%

SMILES	hERG current change (%, negative = inhibition) at 10uM
CCOC(=O)/C=C/c1ccccc1S(=O)(=O)NC(C)(C)C	-23.1%
Cc1ccc(S(=O)(=O)N2CCN(C(=O)CCOc3cc(C)ccc3C)CC2)cc1	-32.8%
CCCSc1nnc(N2C(=O)CC(c3ccsc3)C3=C2CCCC3=O)s1 (stereo not shown)	-6.45%
Cc1nc2ccccn2c1C(=O)NN=C1CCCC1	-10.4%
Cc1cccc(N2CCN(C(=O)CS(=O)(=O)Cc3nc(-c4ccccc4F)oc3C)CC2C)c1 (stereo not shown)	-21.4%
Cn1c(=O)[nH]c(=O)c2c1nc(OC(=O)c1ccccc1)n2CC(O)COc1ccccc1 (stereo not shown)	23.2%
COC(=O)CNC(=O)C1Cc2ccccc2CN1S(=O)(=O)c1ccc(F)cc1 (stereo not shown)	8.38%
O=C(COC(=O)C1CCC1)NCCc1ccc(Cl)cc1Cl	16.1%
CCOc1ccc(S(=O)(=O)N2CCCC(C(=O)NC3CCCC3)C2)cc1 (stereo not shown)	4.57%
COc1cccc(OCc2cc(C(=O)N(Cc3nccn3C)C(C)C)no2)c1	8.5%
CCN(CC)c1ccc(/C=C/[N+](=O)[O-])cc1	-10.4%
O=C(c1cc2ccccc2o1)N1CCN(S(=O)(=O)c2c(F)cccc2F)CC1	-2.27%
CC(C)(C)c1nc(NCc2ccc3c(c2)OCO3)c2nnn(Cc3ccccc3Cl)c2n1.Cl	16.4%
Cc1cccc(NC(=O)CCN2CCN(C)CC2)c1.Cl	6.48%
CC1CCN(C(=O)CSc2nc3ccccc3c(=O)[nH]2)CC1	0.905%
O=C(NC1CCCN(C2Cc3ccccc3C2)C1)c1ccc(F)cc1Cl (stereo not shown)	-71.1%
NC(=O)c1nn(CC(=O)Nc2cccc(S(=O)(=O)N3CCCCCC3)c2)c(=O)c2ccccc12	-32.9%
CC(C)Sc1nc2ccccc2n1CC(=O)O	9.86%
Cc1ccc(NC(=O)c2cc([N+](=O)[O-])ccc2N2CCCC2)cc1	-0.291%
CC(C)[C@H](NC(=O)c1ccccc1F)C(=O)Nc1ccc2c(c1)OCO2	5.82%
O=C(c1cccc(COc2ccc(Cl)cc2Cl)c1)N1CCN(c2ccccn2)CC1	-3.19%
CCCCN(C)C(=O)c1c[nH]c2ccc(S(=O)(=O)N3CCOCC3)cc2c1=O	16.9%

SMILES	hERG current change (%, negative = inhibition) at 10uM
O=C(NCc1ccc(F)cc1)c1cc2sccc2n1Cc1ccc(F)cc1	20.9%
C/C(=N/NC(=O)c1ccc(O)cc1)c1cccc([N+](=O)[O-])c1	4.27%
COC(=O)c1ccc(-c2ccc(/C=N/N3C(=O)C4C5C=CC(CC5)C4C3=O)o2)cc1 (stereo not shown)	-16.1%
CCCCNC(=O)C(CC)(ONc1ccccc1C(F)(F)F)c1ccccc1 (stereo not shown)	6.19%
Cn1cnnc1SCNC(=O)C(F)(F)F	9.54%
Cc1cc(C)c(NC(=O)Cn2c(=O)n(-c3ccc(CC(=O)NCC4CCCO4)cc3)c(=O)c3ccccc32)c(C)c1 (stereo not shown)	5.67%
CC(C)[C@@H]1NC(=O)c2cc([N+](=O)[O-])cc(I)c2NCCC[C@@H](C(N)=O)NC(=O)[C@H](CO)NC1=O	-0.897%
CCn1c(=N)n(CC(=O)c2cccc(OC)c2)c2ccccc21	-16.6%
CCOc1ccccc1CN1CCN(Cc2csc(C(C)=O)c2)CC1CCO (stereo not shown)	-44.5%
CCN(CC)S(=O)(=O)c1cccc(C(=O)NCC2CCCO2)c1 (stereo not shown)	-1.94%
CCCCNC(=O)C(=O)c1ccccc1NC(C)=O	2.85%
COc1ccc(C2CC(c3ccccc3)=NN2c2ccc(/C=N/NC(=O)c3ccncc3)cc2)cc1 (stereo not shown)	-0.834%
CCCNC(=O)NC(=O)CN1C(=O)NC(C)(c2ccc(C)cc2)C1=O (stereo not shown)	-7.72%
COc1cc(OC)cc(N2C(=O)CSCC2=O)c1	9.07%
COc1cccc(OP(=O)(Nc2ccccc2)Oc2cccc(OC)c2)c1	5.62%
CCOc1cc(C(=O)NC(C)CC)cc(OCC)c1OCC (stereo not shown)	13.1%
Cc1ccc(CNC(=O)/C=C/C(=O)O)cc1	-15.4%
O=C(NC1CCSc2ccccc21)c1ccc([N+](=O)[O-])cc1 (stereo not shown)	-40.3%
CCOC(=O)C1=NNC2C(=O)N(C3CCCCC3)C(=O)C12 (stereo not shown)	1.58%
O=C(c1ccccc1)N1N=C(c2cccs2)CC1c1ccccc1O (stereo not shown)	5.86%
CCCN1CCN(C(=O)C2CCCN(c3ncnc4c3nc3n4CCCCC3)C2)CC1 (stereo not shown)	-1.04%
Cc1cc(=O)oc2cc(NC(=O)COc3cccc(C(F)(F)F)c3)ccc12	-2.39%
